Assay results: PubChem BioAssay AID588342 (National Center for Advancing Translational Sciences (NCATS), 2011)
In all, about 360,000 compounds went through this assay and about 25,000 (6.9%) were called active. The shares of active, inactive and inconclusive entries below differ from those in the screen. Calls follow the shape of the dose curve; as a rule, active = well fitted inhibition curve with a large enough effect; inconclusive = small, poorly fitted or top-dose-only effect; inactive = flat fitted curve, though single readings scatter. Potencies of inconclusive entries are doubtful fits and often do not repeat.

Target: Luciferin 4-monooxygenase (Photinus pyralis) (UniProt P08659)
Test: qHTS profiling assay for firefly luciferase inhibitor/activator using purifed enzyme and Km concentrations of substrates (counterscreen for miR-21 project); also: nearly all actives have a fitted effect of over 55% in size;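 as to activity change, negative = inhibition: plate controls were vehicle for no effect and reference inhibitor for full effect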
Settings: purified FLuc, luminescence inhibition; series mostly up to 57.5 µM; activity change, negative = inhibition: at the top concentration
How it was run: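 Purified P. pyralis luciferase, 10 nM final, with Km-level 10 uM D-luciferin and 10 uM ATP in 50 mM Tris acetate pH 7.5, 10 mM Mg acetate, 0.01% Tween-20, 0.05% BSA; 6-point qHTS titration about 60 µM downward; luminescence read.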
Potency is read from the fitted curve at half-maximal effect; tags tell the direction and shape of the fitted curve.

UniProt P08659, sequence (P08659 whole entry, looked up): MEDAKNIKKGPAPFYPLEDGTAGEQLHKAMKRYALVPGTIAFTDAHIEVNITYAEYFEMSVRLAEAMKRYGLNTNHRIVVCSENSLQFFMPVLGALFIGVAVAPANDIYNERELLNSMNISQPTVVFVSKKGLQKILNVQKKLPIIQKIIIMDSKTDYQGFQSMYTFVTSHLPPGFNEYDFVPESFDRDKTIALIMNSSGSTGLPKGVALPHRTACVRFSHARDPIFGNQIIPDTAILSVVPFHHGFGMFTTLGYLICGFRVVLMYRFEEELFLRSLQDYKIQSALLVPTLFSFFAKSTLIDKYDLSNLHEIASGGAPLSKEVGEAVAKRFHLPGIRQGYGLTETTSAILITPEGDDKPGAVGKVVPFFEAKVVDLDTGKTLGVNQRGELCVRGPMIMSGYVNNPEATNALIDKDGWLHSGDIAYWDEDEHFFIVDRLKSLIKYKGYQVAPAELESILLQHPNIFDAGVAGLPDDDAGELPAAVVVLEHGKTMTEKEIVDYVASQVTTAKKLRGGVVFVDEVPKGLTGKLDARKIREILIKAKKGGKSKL

Row | SMILES | Potency | activity change, negative = inhibition
1 | Cc1ccc(C(=O)Nc2ccccc2C(N)=O)o1 | inconclusive: 37.9 µM [inhibitor, partial curve, poor fit] | 
2 | Cc1ccc(N/C=C/C(=O)c2cccs2)cc1C | active: 0.19 µM | 
3 | NNC(=O)CNS(=O)(=O)c1ccc([N+](=O)[O-])cc1 |  | inactive: 4.28%
4 | COc1cccc(CNC(=O)c2cccc(NC(=O)C3=C(C)OCCS3)c2)c1 | inconclusive: 21.3 µM [inhibitor, partial curve, poor fit] | 
5 | COc1ccc(/C=C/C(=O)N2CCN(c3ccccn3)CC2)c2ccccc12 | inconclusive: 37.9 µM [inhibitor, partial curve, poor fit] | 
6 | CC(C)C(=O)OCC(=O)Nc1ccc(N=Nc2ccccc2)cc1 | inconclusive: 23.9 µM [inhibitor, single point] | 
7 | COC(=O)Cc1nc(NC(=O)c2cccs2)sc1C | active: 16.9 µM | 
8 | NNc1nccc(Nc2ccccc2C(=O)O)n1 | inconclusive: 3.38 µM [inhibitor, partial curve] | 
9 | O=C(COC(=O)CCCOc1ccc(Cl)cc1Cl)Nc1cccc(Cl)c1 | inconclusive: 21.3 µM [inhibitor, partial curve, poor fit] | 
10 | COc1ccc(-c2noc(-c3ccc(NCc4cccnc4)c([N+](=O)[O-])c3)n2)cc1OC | inconclusive: 13.5 µM [inhibitor, partial curve] | 
11 | COc1ccc(NC(=O)c2csc3c2CCCCC3)c(OC)c1 | inconclusive: 26.9 µM [inhibitor, single point] | 
12 | Cc1cc(C)cc(-n2c(C)nc3cc(C(=O)O)ccc32)c1 | inconclusive: 12 µM [inhibitor, partial curve, poor fit] | 
13 | CCOc1ccc(C2=CC(c3cccc(Br)c3)n3c(nc4ccccc43)N2)cc1Cl (configuration not stated) | active: 13.5 µM | 
14 | Cc1nc2sccn2c(=O)c1S(=O)(=O)NC(C)c1ccccc1 (configuration not stated) |  | inactive: 0.0308%
15 | COc1ccccc1C(=O)OCc1cc(=O)n2c(C)csc2n1 | active: 19 µM | 
16 | C=CCN(CC=C)S(=O)(=O)c1ccc(NC(=S)NC(=O)C2CC2)cc1 |  | inactive: 3.65%
17 | COc1ccc(N2CCN(C(=O)CC(C)S(=O)(=O)c3ccc4c(c3)NC(=O)CO4)CC2)cc1 (configuration not stated) |  | inactive: 3.41%
18 | COc1ccc(-c2[nH]c(-c3ccc(C)cc3)nc2SCC(=O)NCC2CCCO2)cc1 (configuration not stated) |  | inactive: -9.04%
19 | Cc1ccc(-c2csc3nc(C)n(N)c(=O)c23)o1 | inconclusive: 19 µM [inhibitor, partial curve] | 
20 | CC(C)c1cc(=O)[nH]c(N2CCN(Cc3ccc4c(c3)OCO4)CC2)n1 |  | inactive: 6.34%
21 | COc1ccc(C2=NOC(Cn3nc(C(=O)O)cc3-c3ccccc3)C2)cc1 (configuration not stated) |  | inactive: 0.1%
22 | COc1ccccc1CNC(=O)c1cccc(NC(=O)c2ccccc2)c1 | inconclusive: 37.9 µM [inhibitor, partial curve, poor fit] | 
23 | CC(C)C(OC(=O)CCC(=O)Nc1nccs1)C(=O)NC1CCCCC1 (configuration not stated) | inconclusive: 19 µM [inhibitor, partial curve] | 
24 | COc1ccc2c(c1OC)C(=O)OC2Nc1nc(-c2ccc([N+](=O)[O-])cc2)cs1 (configuration not stated) | inconclusive: 30.1 µM [inhibitor, partial curve, poor fit] | 

Row | SMILES | Potency | activity change, negative = inhibition
25 | CCCCNc1ccc2nsnc2c1[N+](=O)[O-] |  | inactive: -7.03%
26 | COc1ccccc1/C=C/C=N/NC(=O)Cc1cccs1 | inconclusive: 16.9 µM [inhibitor, partial curve, poor fit] | 
27 | Cc1ccn2cc(-c3cccc(S(=O)(=O)N4CC(C)OC(C)C4)c3)nc2c1 (configuration not stated) | inconclusive: 26.9 µM [inhibitor, partial curve] | 
28 | Cc1cc(C)cc(NC(=O)c2ccc(S(=O)(=O)C(F)F)cc2)c1 | active: 13.5 µM | 
29 | O=C(COC(=O)Cn1cnc2ccccc21)Nc1cc(S(=O)(=O)N2CCOCC2)ccc1Cl |  | inactive: -1.23%
30 | COc1cccc(C(=O)NCc2cn3cccc(C)c3n2)c1 |  | inactive: 5.44%
31 | COc1cccc(NC(=O)CN(C)C(=O)C(Sc2ccccc2)c2ccccc2)c1 (configuration not stated) |  | inactive: 3.3%
32 | CN(C)c1ccc(N/C=C/C(=O)C(C)(C)C)cc1 | active: 5.36 µM | 
33 | CCCC(=O)Nc1ccc(-c2csc(NNC(C)=O)n2)cc1 |  | inactive: -16.7%
34 | Cc1ccc2scc(N3CCCC(C)C3)c(=O)c2c1 (configuration not stated) | active: 0.757 µM | 
35 | CCc1noc(C)c1C(=O)Nc1ccc(-c2nnc3n2CCCCC3)cc1 |  | inactive: 5.2%
36 | CC1CCc2nc(NC(=O)c3cc(C(C)(C)C)nn3C)sc2C1 (configuration not stated) | inconclusive: 10.7 µM [inhibitor, partial curve, poor fit] | 
37 | COC(=O)c1c(NC(=O)CS(=O)(=O)c2ccc(C)cc2)sc2c1CCCCC2 | inconclusive: 9.53 µM [inhibitor, partial curve, poor fit] | 
38 | C=CCN=Cc1sc2ccc(OCC)cc2c1O | active: 8.49 µM | 
39 | O=S(=O)(N/N=C/c1cn(Cc2ccccc2)c2ccccc12)c1ccccc1 | inconclusive: 37.9 µM [inhibitor, partial curve, poor fit] | 
40 | COc1ccc(CCNC(=O)C(=O)N2CCCC2)cc1OC | inconclusive: 0.0135 µM [inhibitor, partial curve, poor fit] | 
41 | Cc1ccc(CNCC(=O)Nc2ccc(C)cc2Br)cc1 | inconclusive: 30.1 µM [inhibitor, partial curve, poor fit] | 
42 | Cc1ccc(O)c(C(=O)CC(=O)c2cccc(F)c2)c1 |  | inactive: -6.63% [at 2.3 µM]
43 | CCOC(=O)c1cc2c(=O)n3ccccc3nc2n(CCCOC)c1=NC(=O)c1cc2ccccc2o1 |  | inactive: -2.94%
44 | Cc1ccc(Cn2c(C)c3cnn(CC(=O)N4CCN(c5cc(C)ccc5C)CC4)c(=O)c3c2C)cc1 | inconclusive: 9.53 µM [inhibitor, partial curve, poor fit] | 
45 | COc1cccc(-n2c(C)nc3c(cnn3-c3ccc(C)c(C)c3)c2=O)c1 | inconclusive: 26.9 µM [inhibitor, partial curve, poor fit] | 
46 | Cc1ccc(CCNC(=O)c2cc3ccccn3n2)cc1 | inconclusive: 42.6 µM [inhibitor, partial curve, poor fit] | 
47 | O=C(/C=C/c1ccc2c(c1)OCCO2)c1ccccc1 | active: 0.478 µM | 
